Source: PubChem BioAssay AID686978 (National Center for Advancing Translational Sciences (NCATS), 2013)
Several values for one entry are separate records, joined by “and”; a condition that tells them apart may be missing. Identical values can stand only once. Hit rate of the full screen: of about 420,000 compounds, about 64,000 (15%) were called active. Inconclusive results, whose numbers are uncertain, are shown with a selection of clear calls. Calls follow the shape of the dose curve; as a rule, active = well fitted inhibition curve with a large enough effect; inconclusive = small, poorly fitted or top-dose-only effect; inactive = flat fitted curve, though single readings scatter. Potencies of inconclusive entries are left out as doubtful fits.
% is scaled to controls: 0 for no effect and ±100 for the full control effect; potency is read from the fitted curve at half-maximal effect; tags tell the direction and shape of the fitted curve.

Test: qHTS for Inhibitors of human tyrosyl-DNA phosphodiesterase 1 (TDP1): qHTS in cells in absence of CPT; also: nearly all actives have a fitted effect of over 55% in size
Details: DT40 Tdp1-/- hTDP1 cells, no CPT, ATP luminescence, 48 h; activity change, negative = growth inhibition: at 46.2 µM (top of the series) unless noted
Outline: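 Camptothecin absent (DMSO only). Human TDP1-complemented DT40 knockout cells, 400 cells/well, 37 °C for minimum 48 hr; ATP measured via CellTiter-Glo, 30 min dark incubation, luminescence.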
With Cc1[nH]c2ccccc2c1SCC(=O)N1CCN(c2ccccc2)CC1 the Potency was active: 25.9 µM.
With C/C(Cn1nnc([N+](=O)[O-])n1)=N\NC(=O)c1ccccc1Cl the Potency was inconclusive [inhibitor, single point].
For O=C(Nc1ccc2c(c1)OCO2)c1cc(-c2cccc(Cl)c2)on1, the Potency was “inactive”.
With CCOC(=O)CSCc1c(C#N)c2ccccc2n1C the Potency was “inactive”.
For O=C(CCNC(=O)c1ccccc1Cl)N/N=C\c1ccc(O)cc1, the Potency was inconclusive [inhibitor, single point].
For CCNC(=O)N1CCN(CCCC(c2ccc(F)cc2)c2ccc(F)cc2)CC1, the Potency was active: 10.6 µM and active: 18.4 µM.
In the case of CCC(=O)Nc1ccc2c(c1)Cc1cc([N+](=O)[O-])ccc1-2, the Potency is reported as active: 6.51 µM.
With Cc1ccc(C)c(N2CCN(C(=O)Cn3cnc4sc(C)c(S(=O)(=O)N5CCN(c6ncccn6)CC5)c4c3=O)CC2)c1 the Potency was active: 9.2 µM.
For CCOC(=O)c1sc(NC(=O)c2cccc(S(=O)(=O)N3CCc4ccccc43)c2)c(C#N)c1C, the Potency was active: 2.91 µM.
In the case of O=C1c2ccccc2C(=O)N1CCCc1c[nH]c2ccc(Cl)cc12, the Potency is reported as “inactive”.
In the case of O=C(Nc1ccncc1)Nc1ccc(Cl)cc1, the activity change, negative = growth inhibition is reported as inconclusive: -31.1% [inhibitor].
For Cc1ccc(C)c2nc(SCC(=O)N3CCCc4ccccc43)c(C#N)cc12, the Potency was inconclusive [inhibitor, single point].
With CCOC(=O)N1CCC(Nc2ccc(N3C(=O)C4CCCCC4C3=O)cc2[N+](=O)[O-])CC1 (configuration not stated) the Potency was “inactive”.
For Cc1cccc(C(=O)NNC(=S)NC(=O)c2ccccc2)c1, the Potency was active: 20.6 µM.
In the case of Cc1ccc(NC(=O)NCc2nc3ccccc3n2C)cc1, the Potency is reported as active: 23.1 µM.
In the case of CCOc1ccc(N(CC(=O)Nc2ccc(Cl)cc2)S(C)(=O)=O)cc1, the Potency is reported as inconclusive [inhibitor, single point].
For CC1=C(C(=O)OC2CCCC2)C(c2ccc(C)o2)C2=C(CC(c3cccs3)CC2=O)N1 (configuration not stated), the Potency was active: 16.4 µM.
For C=C(Br)Cn1c(CC)nc2ccccc21, the Potency was inconclusive [inhibitor, single point].
With COc1ccc(/C=N/NC(=O)CN2CCCc3ccccc32)c(OC)c1 the Potency was inconclusive [inhibitor, single point].
With Cc1ccc(C(=O)Nc2ccccc2N2CCCC2)cc1S(=O)(=O)N1CCOCC1 the Potency was inconclusive [inhibitor, single point].
In the case of COc1ccc(CC(=O)NCC2(c3ccc(OC)c(OC)c3)CCOCC2)cc1, the Potency is reported as “inactive”.
For O=C(COc1ccc(Cl)cc1Cl)Nc1ccc(CN2CCOCC2)cc1, the Potency was inconclusive [inhibitor, single point].
